# Test results: the supplement of paper PMC8728848
# The other results are listed elsewhere or left out.
# B1: PEB3 Cj0289c (Campylobacter jejuni), Q9PIK7 (protein)
# chain: MDVNLYGPGGPHTALKDIANKYSEKTGVKVNVNFGPQATWFEKAKKDADILFGASDQSALAIASDFGKDFNVSKIKPLYFREAIILTQKGNPLKIKGLKDLANKKVRIVVPEGAGKSNTSGTGVWEDMIGRTQDIKTIQNFRNNIVAFVPNSGSARKLFAQDQADAWITWIDWSKSNPDIGTAVAIEKDLVVYRTFNVIAKEGASKETQDFIAYLSSKEAKEIFKKYGWRE
# Tests used:
# Experiment in all cases: glycan array binding signal (z-score within array); higher = stronger binding
# Conditions in all cases: glycan notation: IUPAC condensed, linker removed
# [1] = molecular target: Fuc(a1-2)[GalNAc(a1-3)]Gal(b1-4)[Fuc(a1-3)]GlcNAc
# Procedure, shortened: (§1)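 From the Consortium for Functional Glycomics database, 3228 arrays were curated, keeping only those whose protein sequence was available. Binding is given as a within-array Z-score averaged across arrays sharing a protein sequence and across linkers. Negative Z-scores can be read as non-binding.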
# [2] = molecular target: Fuc(a1-2)[GalNAc(a1-4)]Gal(b1-4)GlcNAc
# Procedure, shortened: as §1
# Fuc(a1-3)GlcNAc = molecular target: Fuc(a1-3)GlcNAc
# Procedure, shortened: as §1
# [3] = molecular target: Fuc(a1-3)[Gal(b1-4)]Glc6S
# Procedure, shortened: as §1
# [4] = molecular target: Fuc(a1-3)[Gal(b1-4)]GlcNAc
# Procedure, shortened: as §1
# [5] = molecular target: Fuc(a1-3)[Gal(b1-4)]GlcNAc(b1-3)Gal(b1-3)[Fuc(a1-4)]GlcNAc
# Procedure, shortened: as §1
# [6] = molecular target: Fuc(a1-3)[Gal(b1-4)]GlcNAc(b1-4)Gal(b1-4)[Fuc(a1-3)]GlcNAc
# Procedure, shortened: as §1
# [7] = molecular target: Fuc(a1-3)[Gal(b1-4)]GlcNAc(b1-4)Gal(b1-4)[Fuc(a1-3)]GlcNAc(b1-4)Gal(b1-4)[Fuc(a1-3)]GlcNAc
# Procedure, shortened: as §1
# [8] = molecular target: Fuc(a1-3)[Gal(b1-4)]GlcNAc6S
# Procedure, shortened: as §1
# [9] = molecular target: Fuc(a1-3)[Gal3S(b1-4)]Glc
# Procedure, shortened: as §1
# [10] = molecular target: Fuc(a1-3)[Gal3S(b1-4)]Glc6S
# Procedure, shortened: as §1
# [11] = molecular target: Fuc(a1-3)[Gal3S(b1-4)]GlcNAc
# Procedure, shortened: as §1
# [12] = molecular target: Fuc(a1-3)[Gal3S(b1-4)]GlcNAc6S
# Procedure, shortened: as §1
# [13] = molecular target: Fuc(a1-3)[GalNAc(b1-4)]Gal(b1-4)GlcNAc
# Procedure, shortened: as §1
# Fuc(a1-4)GlcNAc = molecular target: Fuc(a1-4)GlcNAc
# Procedure, shortened: as §1
# Fuc(b1-3)GlcNAc = molecular target: Fuc(b1-3)GlcNAc
# Procedure, shortened: as §1
# Gal(a1-2)Gal = molecular target: Gal(a1-2)Gal
# Procedure, shortened: as §1
# Gal(a1-3)Gal = molecular target: Gal(a1-3)Gal
# Procedure, shortened: as §1
# Gal(a1-3)Gal(b1-3)Glc = molecular target: Gal(a1-3)Gal(b1-3)Glc
# Procedure, shortened: as §1
# Gal(a1-3)Gal(b1-3)GlcNAc = molecular target: Gal(a1-3)Gal(b1-3)GlcNAc
# Procedure, shortened: as §1
# Gal(a1-3)Gal(b1-4)GlcNAc = molecular target: Gal(a1-3)Gal(b1-4)GlcNAc
# Procedure, shortened: as §1
# [14] = molecular target: Gal(a1-3)Gal(b1-4)[Fuc(a1-3)]GalNAc
# Procedure, shortened: as §1
# Gal(a1-3)GlcNAc = molecular target: Gal(a1-3)GlcNAc
# Procedure, shortened: as §1
# [15] = molecular target: Gal(a1-3)[Gal(a1-4)]Gal(b1-4)GlcNAc
# Procedure, shortened: as §1
# Gal(a1-4)Gal(b1-4)Gal = molecular target: Gal(a1-4)Gal(b1-4)Gal
# Procedure, shortened: as §1
# Gal(a1-4)Gal(b1-4)GalNAc = molecular target: Gal(a1-4)Gal(b1-4)GalNAc
# Procedure, shortened: as §1
# Gal(a1-4)GlcNAc = molecular target: Gal(a1-4)GlcNAc
# Procedure, shortened: as §1
# Gal(a1-6)Glc = molecular target: Gal(a1-6)Glc
# Procedure, shortened: as §1
# Gal(b1-2)Gal = molecular target: Gal(b1-2)Gal
# Procedure, shortened: as §1
# Gal(b1-3)Gal = molecular target: Gal(b1-3)Gal
# Procedure, shortened: as §1
# Gal(b1-3)GalNAc = molecular target: Gal(b1-3)GalNAc
# Procedure, shortened: as §1
# [16] = molecular target: Gal(b1-3)GalNAc(b1-3)Gal(a1-4)Gal(b1-4)Glc
# Procedure, shortened: as §1
# [17] = molecular target: Gal(b1-3)GalNAc(b1-3)Gal(b1-4)Glc
# Procedure, shortened: as §1
# [18] = molecular target: Gal(b1-3)GalNAc(b1-3)Gal(b1-4)GlcNAc
# Procedure, shortened: as §1
# [19] = molecular target: Gal(b1-3)GalNAc(b1-4)Gal(b1-4)Glc
# Procedure, shortened: as §1
# [20] = molecular target: Gal(b1-3)GalNAc(b1-4)[Neu5Ac(a2-3)]Gal(b1-4)Glc
# Procedure, shortened: as §1
# [21] = molecular target: Gal(b1-3)GlcNAc(b1-3)Gal(b1-3)GlcNAc
# Procedure, shortened: as §1
# [22] = molecular target: Gal(b1-3)[Fuc(a1-4)]GlcNAc
# Procedure, shortened: as §1
# [23] = molecular target: Gal(b1-3)[Fuc(a1-4)]GlcNAc(b1-3)Gal(b1-3)[Fuc(a1-4)]GlcNAc
# Procedure, shortened: as §1
# [24] = molecular target: Gal(b1-3)[Fuc(a1-4)]GlcNAc(b1-3)Gal(b1-4)GlcNAc
# Procedure, shortened: as §1
# [25] = molecular target: Gal(b1-3)[Fuc(a1-4)]GlcNAc(b1-3)Gal(b1-4)[Fuc(a1-3)]GlcNAc
# Procedure, shortened: as §1
# [26] = molecular target: Gal(b1-3)[GlcNAc(b1-6)]GalNAc
# Procedure, shortened: as §1
# [27] = molecular target: Gal(b1-3)[GlcNAc(b1-6)]GlcNAc
# Procedure, shortened: as §1
# [28] = molecular target: Gal(b1-3)[Neu5Ac(a2-6)]GalNAc
# Procedure, shortened: as §1
# [29] = molecular target: Gal(b1-3)[Neu5Ac(a2-6)]GlcNAc
# Procedure, shortened: as §1
binder,measurement,setting,value
B1,glycan array binding signal (z-score),[1],-0.226
same,glycan array binding signal (z-score),[2],0.057
same,glycan array binding signal (z-score),Fuc(a1-3)GlcNAc,-0.117
same,glycan array binding signal (z-score),[3],-0.379
same,glycan array binding signal (z-score),[4],-0.358
same,glycan array binding signal (z-score),[5],-0.4
same,glycan array binding signal (z-score),[6],-0.172
same,glycan array binding signal (z-score),[7],-0.441
same,glycan array binding signal (z-score),[8],-0.198
same,glycan array binding signal (z-score),[9],-0.401
same,glycan array binding signal (z-score),[10],0.015
same,glycan array binding signal (z-score),[11],-0.266
same,glycan array binding signal (z-score),[12],0.228
same,glycan array binding signal (z-score),[13],-0.378
same,glycan array binding signal (z-score),Fuc(a1-4)GlcNAc,-0.029
same,glycan array binding signal (z-score),Fuc(b1-3)GlcNAc,-0.111
same,glycan array binding signal (z-score),Gal(a1-2)Gal,0.096
same,glycan array binding signal (z-score),Gal(a1-3)Gal,0.313
same,glycan array binding signal (z-score),Gal(a1-3)Gal(b1-3)Glc,-0.13
same,glycan array binding signal (z-score),Gal(a1-3)Gal(b1-3)GlcNAc,-0.163
same,glycan array binding signal (z-score),Gal(a1-3)Gal(b1-4)GlcNAc,-0.269
same,glycan array binding signal (z-score),[14],-0.258
same,glycan array binding signal (z-score),Gal(a1-3)GlcNAc,-0.191
same,glycan array binding signal (z-score),[15],-0.332
same,glycan array binding signal (z-score),Gal(a1-4)Gal(b1-4)Gal,0.234
same,glycan array binding signal (z-score),Gal(a1-4)Gal(b1-4)GalNAc,-0.187
same,glycan array binding signal (z-score),Gal(a1-4)GlcNAc,-0.089
same,glycan array binding signal (z-score),Gal(a1-6)Glc,1.25
same,glycan array binding signal (z-score),Gal(b1-2)Gal,0.096
same,glycan array binding signal (z-score),Gal(b1-3)Gal,0.05
same,glycan array binding signal (z-score),Gal(b1-3)GalNAc,-0.213
same,glycan array binding signal (z-score),[16],-0.391
same,glycan array binding signal (z-score),[17],-0.312
same,glycan array binding signal (z-score),[18],-0.308
same,glycan array binding signal (z-score),[19],-0.315
same,glycan array binding signal (z-score),[20],-0.412
same,glycan array binding signal (z-score),[21],-0.469
same,glycan array binding signal (z-score),[22],-0.348
same,glycan array binding signal (z-score),[23],-0.393
same,glycan array binding signal (z-score),[24],-0.333
same,glycan array binding signal (z-score),[25],-0.367
same,glycan array binding signal (z-score),[26],-0.25
same,glycan array binding signal (z-score),[27],-0.285
same,glycan array binding signal (z-score),[28],-0.409
same,glycan array binding signal (z-score),[29],-0.33
